# Experimental data published in a collection of fitness landscapes (doi:10.1126/science.1257360).
# The other results are listed elsewhere or left out.
# B1: PhoQ; a variant is named by its letters at X, in order, P23837 (parent)
# chain: MKKLLRLFFPLSLRVRFLLATAAVVLVLSLAYGMVALIGYSVSFDKTTFRLLRGESNLFYTLAKWENNKLHVELPENIDKQSPTMTLIYDENGQLLWAQRDVPWLMKMIQPDWLKSNGFHEIEADVNDTSLLLSGDHSIQQQLQEVREDDDDAEMTHSVAVNVYPATSRMPKLTIVVVDTIPVELKSSYMVWSWFIYVLSANLLLVIPLLWVAAWWSLRPIEALAKEVRELEEHNRELLNPATTRELTSLVRNLNRLLKSERERYDKYRTTLTDLTHSLKTPLXXLQXXLRSLRSEKMSVSDAEPVMLEQISRISQQIGYYLHRASMRGGTLLSRELHPVAPLLDNLTSALNKVYQRKGVNISLDISPEISFVGEQNDFVEVMGNVLDNACKYCLEFVEISARQTDEHLYIVVEDDGPGIPLSKREVIFDRGQRVDTLRPGQGVGLAVAREITEQYEGKIVAGESMLGGARMEVIFGRQHSAPKDE
# Variants of: B1
# Assay: enrichment ratio after two sorts for PhoP signalling (ratio (wild type AVST 3.29)); higher = more functional
# Conditions: with PhoP (E. coli)
row,Variant,enrichment ratio
1,KYEP,≤ 0.25
2,HHWW,≤ 0.25
3,INRS,≤ 0.25
4,VSCC,≤ 0.25
5,GSES,≤ 0.25
6,QAGQ,24.5
7,ARMC,≤ 0.25
8,VPPN,≤ 0.25
9,VHPC,≤ 0.25
10,EARG,≤ 0.25
11,AGSH,9.44
12,ENAW,≤ 0.25
13,WEHL,≤ 0.25
14,WWLE,≤ 0.25
15,KRIN,≤ 0.25
16,IFDP,≤ 0.25
17,PYSQ,≤ 0.25
18,QGMF,≤ 0.25
19,SGMA,8.36
20,MYDL,≤ 0.25
21,WRQC,≤ 0.25
22,DSPA,≤ 0.25
23,NYWS,≤ 0.25
24,LQHT,≤ 0.25

row,Variant,enrichment ratio
1,FNNA,≤ 0.25
2,KDMQ,≤ 0.25
3,LHSH,≤ 0.25
4,QEQR,≤ 0.25
5,HSLQ,7.69
6,SRYH,≤ 0.25
7,PTAQ,≤ 0.25
8,NDAK,≤ 0.25
9,IELP,≤ 0.25
10,PMQG,≤ 0.25
11,TIAK,8.23
12,NQRF,≤ 0.25
13,WRRM,≤ 0.25
14,EVFP,≤ 0.25
15,RLQQ,≤ 0.25
16,ELCL,≤ 0.25
17,LQMS,≤ 0.25
18,VQFC,≤ 0.25
19,QVHY,≤ 0.25
20,PTPT,≤ 0.25
21,YMLW,≤ 0.25
22,QILR,≤ 0.25
23,FMHH,≤ 0.25
24,TNAC,3.13

row,Variant,enrichment ratio
1,PGGW,≤ 0.25
2,FHTK,≤ 0.25
3,GTWI,≤ 0.25
4,KQQN,≤ 0.25
5,VLTW,2.09
6,MTCH,≤ 0.25
7,IGKQ,≤ 0.25
8,DPIP,≤ 0.25
9,FDTH,≤ 0.25
10,HMCY,≤ 0.25
11,VMCW,≤ 0.25
12,QMST,2.17
13,QSDH,18.9
14,GATR,≤ 0.25
15,KSMV,≤ 0.25
16,TDCM,6.15
17,ESSE,≤ 0.25
18,PKFI,≤ 0.25
19,TCIV,≤ 0.25
20,FPTF,≤ 0.25
21,DPFL,≤ 0.25
22,TSPT,≤ 0.25
23,HNAT,≤ 0.25
24,ETIV,≤ 0.25

row,Variant,enrichment ratio
1,FGED,≤ 0.25
2,HDYC,≤ 0.25
3,IMNA,≤ 0.25
4,LSYC,≤ 0.25
5,VLNI,≤ 0.25
6,KCCL,≤ 0.25
7,YSGM,≤ 0.25
8,IVTA,≤ 0.25
9,DPFN,≤ 0.25
10,HEWF,≤ 0.25
11,KMYA,≤ 0.25
12,YFVF,≤ 0.25
13,FKAI,≤ 0.25
14,MVIH,≤ 0.25
15,AWAG,≤ 0.25
16,TNSY,7.94
17,IVDS,≤ 0.25
18,LMTR,≤ 0.25
19,WFWM,≤ 0.25
20,YFYI,≤ 0.25
21,PEPD,≤ 0.25
22,PIYS,0.681
23,ASCA,13.5
24,RDST,0.356

row,Variant,enrichment ratio
1,KFGV,≤ 0.25
2,YGTF,≤ 0.25
3,YPYG,≤ 0.25
4,TPVI,≤ 0.25
5,QACK,≤ 0.25
6,ISLH,≤ 0.25
7,ITDI,≤ 0.25
8,ELPA,≤ 0.25
9,QGIF,≤ 0.25
10,YMMS,≤ 0.25
11,QPLQ,≤ 0.25
12,PKFK,≤ 0.25
13,LLNH,≤ 0.25
14,MEVT,27.6
15,MFNE,≤ 0.25
16,EGRM,≤ 0.25
17,VNKY,≤ 0.25
18,WFKQ,≤ 0.25
19,MHNG,≤ 0.25
20,GTCV,≤ 0.25
21,HCGI,≤ 0.25
22,DIWV,≤ 0.25
23,VSCI,7.51
24,REGF,≤ 0.25

row,Variant,enrichment ratio
1,WYMG,≤ 0.25
2,GPDP,≤ 0.25
3,RLHV,≤ 0.25
4,HKRN,≤ 0.25
5,ALMI,17.6
6,FDVL,≤ 0.25
7,KSHS,≤ 0.25
8,HFLH,≤ 0.25
9,MGRS,≤ 0.25
10,HRIH,≤ 0.25
11,MYGN,≤ 0.25
12,YRRW,≤ 0.25
13,FLHN,≤ 0.25
14,PAND,≤ 0.25
15,HYHW,≤ 0.25
16,EGES,≤ 0.25
17,QPIN,≤ 0.25
18,TRKD,≤ 0.25
19,GPVH,≤ 0.25
20,FACT,≤ 0.25
21,QCFK,≤ 0.25
22,NYMP,≤ 0.25
23,QPCH,≤ 0.25
24,VKGF,≤ 0.25

row,Variant,enrichment ratio
1,PTHA,≤ 0.25
2,HGKC,≤ 0.25
3,QMCF,≤ 0.25
4,AAFP,≤ 0.25
5,NCNT,≤ 0.25
6,VCHA,≤ 0.25
7,NLSR,≤ 0.25
8,TLVK,≤ 0.25
9,DMAG,≤ 0.25
10,FWHI,≤ 0.25
11,DYMC,≤ 0.25
12,LWPV,≤ 0.25
13,KRHD,≤ 0.25
14,RFPW,≤ 0.25
15,PWSM,≤ 0.25
16,SERY,≤ 0.25
17,HYMN,≤ 0.25
18,FSPG,≤ 0.25
19,VSST,≤ 0.25
20,PNAL,≤ 0.25
21,NWQE,≤ 0.25
22,FEHC,≤ 0.25
23,NHFC,≤ 0.25
24,ILYS,≤ 0.25

row,Variant,enrichment ratio
1,GMSL,4.68
2,REVM,≤ 0.25
3,PSPV,≤ 0.25
4,NWNA,≤ 0.25
5,FMNQ,≤ 0.25
6,NKPL,≤ 0.25
7,NRDN,≤ 0.25
8,ITWK,≤ 0.25
9,LQMV,≤ 0.25
10,TNNF,6.98
11,SLNI,≤ 0.25
12,AIPA,≤ 0.25
13,QRLW,≤ 0.25
14,AFIR,≤ 0.25
15,LDRW,≤ 0.25
16,EPWY,≤ 0.25
17,EPGK,≤ 0.25
18,FLYG,≤ 0.25
19,VATM,2.07
20,EGWS,≤ 0.25
21,TVEH,9.73
22,SAAM,7.53
23,DYWY,≤ 0.25
24,IYHK,≤ 0.25

row,Variant,enrichment ratio
1,RFGI,≤ 0.25
2,FGKI,≤ 0.25
3,EDCP,≤ 0.25
4,GGYN,≤ 0.25
5,QTFK,≤ 0.25
6,LPMV,≤ 0.25
7,RQSK,≤ 0.25
8,YKDY,≤ 0.25
9,GVAK,11.7
10,FNWH,≤ 0.25
11,VPAA,≤ 0.25
12,PENV,≤ 0.25
13,TCDA,≤ 0.25
14,MWPR,≤ 0.25
15,RCGG,≤ 0.25
16,MFNT,≤ 0.25
17,LDIN,≤ 0.25
18,PHSF,≤ 0.25
19,TWLE,≤ 0.25
20,EYNH,≤ 0.25
21,GKFC,≤ 0.25
22,YWDW,≤ 0.25
23,NAPK,≤ 0.25
24,TGQS,8.69

row,Variant,enrichment ratio
1,HVNR,≤ 0.25
2,WISS,≤ 0.25
3,GKKC,≤ 0.25
4,NAVW,≤ 0.25
5,VYGA,≤ 0.25
6,MYKF,≤ 0.25
7,ATCN,3.42
8,REMV,≤ 0.25
9,LMNE,≤ 0.25
10,KGIR,≤ 0.25
11,PHII,≤ 0.25
12,YSPK,≤ 0.25
13,RSYP,≤ 0.25
14,ISHR,≤ 0.25
15,HWNF,≤ 0.25
16,DKQP,≤ 0.25
17,YWGM,≤ 0.25
18,KCPV,≤ 0.25
19,GTDA,≤ 0.25
20,KKGV,≤ 0.25
21,PAQI,≤ 0.25
22,HESY,≤ 0.25
23,SSEC,≤ 0.25
24,KNCK,≤ 0.25

row,Variant,enrichment ratio
1,YYCL,≤ 0.25
2,MMFS,≤ 0.25
3,SECG,13.7
4,NGEL,≤ 0.25
5,PQMS,≤ 0.25
6,TPRN,≤ 0.25
7,QSWF,7.13
8,EAWY,≤ 0.25
9,RAVN,≤ 0.25
10,KRCD,≤ 0.25
11,AYIS,≤ 0.25
12,ISAW,≤ 0.25
13,EPYQ,≤ 0.25
14,MGEH,≤ 0.25
15,KVTS,≤ 0.25
16,IQIK,≤ 0.25
17,KSTY,≤ 0.25
18,GDRP,≤ 0.25
19,WLEP,≤ 0.25
20,REAI,≤ 0.25
21,PHRG,≤ 0.25
22,MCST,3.88
23,VPDD,≤ 0.25
24,IFQG,≤ 0.25

row,Variant,enrichment ratio
1,LCNV,≤ 0.25
2,MNQH,≤ 0.25
3,GRLA,≤ 0.25
4,DPPS,≤ 0.25
5,DHVP,≤ 0.25
6,WNYG,≤ 0.25
7,GHWW,≤ 0.25
8,QIAH,≤ 0.25
9,ECRF,≤ 0.25
10,RDEV,≤ 0.25
11,NWIV,≤ 0.25
12,HPNW,≤ 0.25
13,NYLR,≤ 0.25
14,EVRG,≤ 0.25
15,RVAY,≤ 0.25
16,IHPD,≤ 0.25
17,YMLF,≤ 0.25
18,PKKA,≤ 0.25
19,GLAK,≤ 0.25
20,PLWK,≤ 0.25
21,YLSA,0.253
22,YELT,4.19
23,FVHY,≤ 0.25
24,KGIY,≤ 0.25

row,Variant,enrichment ratio
1,IIEF,≤ 0.25
2,YQKL,≤ 0.25
3,AFAN,≤ 0.25
4,QEFD,≤ 0.25
5,LLPL,≤ 0.25
6,WSVK,≤ 0.25
7,VNVV,1.94
8,FIRN,≤ 0.25
9,TELA,16.8
10,RFRL,≤ 0.25
11,RTEC,≤ 0.25
12,AFFP,≤ 0.25
13,FPIS,≤ 0.25
14,HRTG,≤ 0.25
15,TWPC,≤ 0.25
16,QLYP,≤ 0.25
17,IDWH,≤ 0.25
18,LTHY,≤ 0.25
